Among all 3,200 compounds or so, about 110 (3.4%) showed an effect of 50% or more. Some of the results follow.
tested on: T1, V. cholerae SAD30; set-up: species or system S. aureus MSSA476 (TSB) or V. cholerae SAD30 (LB); 384-well bacterial growth screen at 25 uM, OD600 relative to DMSO control; settings: relative growth, OD600, LB; 25 µM; inhibitor
T1 construct: SAD30

Structure (SMILES) | % of control remaining
N#CC(=Cc1ccc(F)c(F)c1)C(=O)NC1CCCCC1 [9-J22, 2-cyano-N-cyclohexyl-3-(3,4-difluorophenyl)prop-2-enamide] | 101.224%
C=CC(=O)N(CC)CC(=O)N1CCc2c(cccc2NC(C)=O)C1 [3-K16, N-[2-(5-acetamido-1,2,3,4-tetrahydroisoquinolin-2-yl)-2-oxoethyl]-N-ethylprop-2-enamide] | 90.5017%
COc1ccc(C=C(C#N)C(N)=O)c(Cl)c1OC [9-H14, 3-(2-chloro-3,4-dimethoxyphenyl)-2-cyanoprop-2-enamide] | 95.1054%
CC(C)c1ccc(C(NC(=O)CCl)C(C)C)cc1 (stereo not drawn) [4-O14, 2-chloro-N-{2-methyl-1-[4-(propan-2-yl)phenyl]propyl}acetamide] | 93.3362%
CC(CO)(Cc1ccc(F)cc1)NC(=O)CCl (stereo not drawn) [7-F06, 2-chloro-N-{2-[(4-fluorophenyl)methyl]-1-hydroxypropan-2-yl}acetamide] | 78.5065%
N#CC(=Cc1ccco1)C(=O)NCc1nc(-c2ccncc2)cs1 [9-B20, 2-cyano-3-(furan-2-yl)-N-{[4-(pyridin-4-yl)-1,3-thiazol-2-yl]methyl}prop-2-enamide] | 84.9082%
C=CC(=O)N(C)Cc1cc(-c2ccccc2)[nH]n1 [1-B05, N-methyl-N-[(5-phenyl-1H-pyrazol-3-yl)methyl]prop-2-enamide] | 93.2735%
C=CC(=O)Nc1cc(C)c(CC)cc1OC [3-O06, N-(4-ethyl-2-methoxy-5-methylphenyl)prop-2-enamide] | 109.028%
O=C(CCl)N1CC(NC(=O)C(F)(F)F)CCC1C(F)(F)F (stereo not drawn) [5-O18, N-[1-(2-chloroacetyl)-6-(trifluoromethyl)piperidin-3-yl]-2,2,2-trifluoroacetamide] | 100.032%
COc1cc(CNC(=O)C(C#N)=Cc2ccco2)c2ccccc2n1 [9-I05, 2-cyano-3-(furan-2-yl)-N-[(2-methoxyquinolin-4-yl)methyl]prop-2-enamide] | 91.7063%
Cn1cc(C(=O)CCl)cc1C(N)=O [10-J06, 4-(2-chloroacetyl)-1-methyl-1H-pyrrole-2-carboxamide] | 97.5648%
C=CC(=O)N1CCC(C(=O)N[C@@H](C)C(=O)NC)(c2ccccc2)CC1 [2-B16, (2S)-N-methyl-2-{[4-phenyl-1-(prop-2-enoyl)piperidin-4-yl]formamido}propanamide] | 88.4975%

— article PMC11995724, “Antibiotic target discovery by integrated phenotypic and activity-based profiling of electrophilic fragments” (Cell chemical biology, 2025)
